# Measured values from PubChem BioAssay (Tox21).
# “And” between values parts separate entries of the source, which are not always exact repeats. Equal values may be shown once. Inconclusive results, whose numbers are uncertain, are shown with a selection of clear calls. For part of these data: A potency beside an inconclusive call is a rough fit, not a confirmed value. Some compounds were tested as several samples or in several runs, with calls that do not always agree. The source made the active and inactive calls. Unless noted, calls follow the shape of the dose curve; as a rule, active = well fitted curve in the direction sought with a large enough effect in the repeat runs; inconclusive = weak or mixed curves; inactive = no such curve, though single readings can be large; an effect the other way counts as inactive or inconclusive.
# Legend:
# [1] = qHTS assay for small molecule agonists of the antioxidant response element (ARE) signaling pathway (AID 743202; active = well fitted activation curve with a large enough effect in the signal ratio in the repeat runs, not every such curve was filed as active; inconclusive = weak or mixed curves, or effect the other way; inactive = no such curve, though single readings can be large or run the other way; the % refers to the signal ratio; also: potency is read from the fitted curve at half-maximal effect; as to activation: % is scaled to controls: 0 for no effect and ±100 for the full control effect); conditions: HepG2 ARE-bla reporter, beta-lactamase FRET, 16 h; activation: at 73.3 µM (top of the series) unless noted
# How it was run: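 HepG2 ARE-bla cells; 16 h treatment at 37 C; FRET-based beta-lactamase fluorescence read after 2 h substrate incubation at room temperature.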
# [2] = qHTS assay to identify small molecule agonists of the farnesoid-X-receptor (FXR) signaling pathway - cell viability counter screen (AID 743218); conditions: FXR-bla HEK293T viability, CellTiter-Glo luminescence, 16 h; viability change, negative = cytotoxic: at 62.6 µM (top of the series) unless noted; also: nearly all actives have a fitted effect of over 45% in size; also: potency is read from the fitted curve at half-maximal effect
# How it was run: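 Viability of FXR-bla HEK 293T cells is measured by ATP-based CellTiter-Glo luminescence following 16 h compound treatment at 37 C and a prior 2 h room-temperature beta-lactamase substrate step.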
# [3] = biological target: Vitamin D3 receptor (Homo sapiens) (UniProt P11473); test: qHTS assay to identify small molecule agonists of the vitamin D receptor (VDR) signaling pathway (AID 743222; calls by dose curve; also: potency is read from the fitted curve at half-maximal effect; as to activation: % is scaled to controls: 0 for no effect and ±100 for the full control effect); conditions: HEK293T VDR-UAS-bla, beta-lactamase FRET ratio, 16 h; activation: at 63.5 µM (top of the series) unless noted
# UniProt P11473, sequence (P11473 whole entry, looked up): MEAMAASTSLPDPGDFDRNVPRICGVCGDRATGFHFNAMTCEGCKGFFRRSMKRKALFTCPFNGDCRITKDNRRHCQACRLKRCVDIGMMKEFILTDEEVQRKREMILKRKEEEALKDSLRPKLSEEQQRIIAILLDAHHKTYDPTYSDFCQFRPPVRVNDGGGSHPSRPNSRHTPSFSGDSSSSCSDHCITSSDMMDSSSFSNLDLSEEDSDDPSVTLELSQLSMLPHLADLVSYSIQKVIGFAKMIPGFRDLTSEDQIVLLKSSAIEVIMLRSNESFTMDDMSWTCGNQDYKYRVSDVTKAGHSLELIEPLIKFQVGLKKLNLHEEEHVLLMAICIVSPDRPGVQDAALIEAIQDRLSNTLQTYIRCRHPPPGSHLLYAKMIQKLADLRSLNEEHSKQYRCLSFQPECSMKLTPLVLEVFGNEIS
# How it was run: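 Fluorescence from cleaved LiveBLAzer B/G FRET substrate served as readout. VDR-bla cells had been treated 16 h at 37C with test compounds in DMSO, following a 4 h settling period, and substrate was loaded for 2 h at RT.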
# [4] = biological target: Vitamin D3 receptor (Homo sapiens) (UniProt P11473); test: qHTS assay to identify small molecule antagonists of the vitamin D receptor (VDR) signaling pathway (AID 743223; active = well fitted inhibition curve with a large enough effect in the signal ratio in the repeat runs, not every such curve was filed as active; inconclusive = weak or mixed curves, or effect the other way; inactive = no such curve, though single readings can be large or run the other way; the % refers to the signal ratio; also: potency is read from the fitted curve at half-maximal effect); conditions: VDR-UAS-bla HEK293T, beta-lactamase FRET ratio, 16 h
# How it was run: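 Beta-lactamase activity in VDR-bla cells is measured by FRET substrate fluorescence (2 h, room temperature) after cells spend 16 h at 37C with test compound and 3 nM final 1alpha,25-dihydroxyvitamin D3.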
# [5] = qHTS assay for small molecule activators of the heat shock response signaling pathway (AID 743210; active = well fitted activation curve with a large enough effect in the signal ratio in the repeat runs, with a control signal flat, not every such curve was filed as active; inconclusive = weak or mixed curves; the % refers to the signal ratio; also: potency is read from the fitted curve at half-maximal effect); conditions: HeLa HSE-bla reporter, beta-lactamase ratio, 5 h
# How it was run: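 Following overnight attachment, HSE-bla HeLa cells received test compounds for 5 h at 37 C; beta-lactamase activity was then detected via FRET substrate fluorescence.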
# [6] = qHTS assay for small molecule activators of the heat shock response signaling pathway - cell viability counter screen (AID 743209); conditions: HSE-bla HeLa viability, CellTiter-Glo luminescence, 5 h; activity change, negative = cytotoxicity: at 62.6 µM (top of the series) unless noted; also: % is scaled to controls: 0 for no effect and ±100 for the full control effect; nearly all actives have a fitted effect of over 50% in size
# How it was run: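 Viability of HSE-bla HeLa cells is measured with CellTiter-Glo in the wells already used for the reporter read. Compound exposure lasts 5 h at 37 C, and luminescence is read after 30 min at room temperature.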
# [7] = biological target: Peroxisome proliferator-activated receptor delta (Homo sapiens) (UniProt Q03181); test: qHTS assay to identify small molecule antagonists of the peroxisome proliferator-activated receptor delta (PPARd) signaling pathway (AID 743215; active = well fitted inhibition curve with a large enough effect in the signal ratio in the repeat runs, not every such curve was filed as active; inconclusive = weak or mixed curves, or effect the other way; inactive = no such curve, though single readings can be large or run the other way; the % refers to the signal ratio;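 also: cells stimulated with agonist L165041 at 300 nM final during compound exposure; % is scaled to controls: 0 for no effect and ±100 for the full control effect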); conditions: HEK293H PPARd-UAS-bla, beta-lactamase FRET ratio, antagonist, 17 h
# UniProt Q03181, sequence (Q03181 whole entry, looked up): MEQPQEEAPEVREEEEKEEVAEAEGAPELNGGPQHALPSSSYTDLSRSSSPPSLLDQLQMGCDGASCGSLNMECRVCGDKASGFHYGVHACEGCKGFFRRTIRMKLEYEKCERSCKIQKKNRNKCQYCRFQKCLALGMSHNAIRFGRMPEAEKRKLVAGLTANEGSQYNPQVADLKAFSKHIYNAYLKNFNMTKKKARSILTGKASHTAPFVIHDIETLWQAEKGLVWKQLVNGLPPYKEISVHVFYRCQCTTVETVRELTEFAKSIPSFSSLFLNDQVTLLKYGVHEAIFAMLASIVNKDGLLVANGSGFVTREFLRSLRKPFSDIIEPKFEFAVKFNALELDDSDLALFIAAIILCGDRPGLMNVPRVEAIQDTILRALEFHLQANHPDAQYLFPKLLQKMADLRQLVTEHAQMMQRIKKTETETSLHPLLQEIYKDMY
# How it was run: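 Plated HEK293H PPARd-bla cells rested 5 h at 37 C and 5% CO2. Compound, then agonist L165041 at 300 nM final, was added; 17 h at 37 C followed. Substrate loading, 2 h room temperature, fluorescence measured.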
# [8] = qHTS assay to identify small molecule agonists of the vitamin D receptor (VDR) signaling pathway - cell viability counter screen (AID 743224); conditions: VDR-bla HEK293T viability, CellTiter-Glo luminescence, 16 h; activity change, negative = cytotoxicity: at 62.6 µM (top of the series); also: nearly all actives have a fitted effect of over 50% in size; also: potency is read from the fitted curve at half-maximal effect
# How it was run: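 Compounds were pin-transferred onto VDR-bla cells plated 4 h earlier; following 16 h incubation at 37C, cell viability was quantified by CellTiter-Glo luminescence after 30 min at room temperature.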
# [9] = biological target: Bile acid receptor (Homo sapiens) (UniProt Q96RI1); test: qHTS assay to identify small molecule agonists of the farnesoid-X-receptor (FXR) signaling pathway (AID 743220; active = well fitted activation curve with a large enough effect in the signal ratio in the repeat runs, not every such curve was filed as active; inconclusive = weak or mixed curves, or effect the other way; the % refers to the signal ratio; also: potency is read from the fitted curve at half-maximal effect); conditions: HEK293T FXR-UAS-bla, beta-lactamase FRET ratio, 16 h; activation: at 62.6 µM (top of the series) unless noted
# UniProt Q96RI1, sequence (Q96RI1 whole entry, looked up): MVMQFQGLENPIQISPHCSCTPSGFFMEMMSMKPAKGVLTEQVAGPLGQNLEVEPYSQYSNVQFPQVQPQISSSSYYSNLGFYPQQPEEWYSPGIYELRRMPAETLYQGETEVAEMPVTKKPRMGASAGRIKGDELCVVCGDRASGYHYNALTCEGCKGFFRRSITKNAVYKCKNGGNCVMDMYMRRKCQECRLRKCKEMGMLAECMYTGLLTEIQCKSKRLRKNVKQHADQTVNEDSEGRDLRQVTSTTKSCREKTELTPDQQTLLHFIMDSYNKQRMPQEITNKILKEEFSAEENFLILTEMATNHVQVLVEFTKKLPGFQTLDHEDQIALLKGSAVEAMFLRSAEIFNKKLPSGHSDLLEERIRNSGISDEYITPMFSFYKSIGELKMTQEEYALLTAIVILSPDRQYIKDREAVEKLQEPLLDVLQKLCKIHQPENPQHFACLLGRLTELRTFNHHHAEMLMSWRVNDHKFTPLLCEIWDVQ
# How it was run: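 FXR-UAS-bla HEK 293T cells carrying a UAS-driven beta-lactamase reporter were plated for 5 h at 37C/5% CO2, then exposed to DMSO-dissolved Tox21 10K compounds for 16 h at 37C. A LiveBLAzer B/G FRET substrate was loaded for 2 h at room temperature before fluorescence reading.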
# [10] = qHTS assay for small molecule agonists of the antioxidant response element (ARE) signaling pathway - cell viability counter screen (AID 743203; calls by dose curve; also: potency is read from the fitted curve at half-maximal effect; nearly all actives have a fitted effect of over 55% in size); conditions: ARE-bla HepG2 viability, CellTiter-Glo luminescence, 16 h; viability change, negative = cytotoxic: at 73.3 µM (top of the series)
# How it was run: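 Viability counter screen: stably transfected ARE-bla HepG2 line, 16 hrs compound exposure at 37C/5% CO2, ATP-based CellTiter-Glo luminescence measured in the reporter wells.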
# [11] = biological target: Bile acid receptor (Homo sapiens) (UniProt Q96RI1); test: qHTS assay to identify small molecule antagonists of the farnesoid-X-receptor (FXR) signaling pathway (AID 743217; active = well fitted inhibition curve with a large enough effect in the signal ratio in the repeat runs, not every such curve was filed as active; inconclusive = weak or mixed curves, or effect the other way; inactive = no such curve, though single readings can be large or run the other way; the % refers to the signal ratio; also: % is scaled to controls: 0 for no effect and ±100 for the full control effect); conditions: HEK293T FXR-UAS-bla, beta-lactamase ratio, CDCA-stimulated, 16 h; activity change, negative = inhibition: at 62.6 µM (top of the series) unless noted
# How it was run: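 Screen of the Tox21 10K library in quantitative HTS format using FXR-UAS-bla HEK 293T reporter cells. Agonist chenodeoxycholic acid, 50 uM final, added with compounds; 16 h incubation at 37 °C; beta-lactamase FRET fluorescence measured.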
# [12] = qHTS assay to identify small molecule agonists of the peroxisome proliferator-activated receptor delta (PPARd) signaling pathway - cell viability counter screen (AID 743211); conditions: PPARd-bla HEK293H viability, CellTiter-Glo luminescence, 17 h; activity change, negative = cytotoxicity: at 62.6 µM (top of the series) unless noted; also: nearly all actives have a fitted effect of over 55% in size; also: potency is read from the fitted curve at half-maximal effect
# How it was run: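 Following 5 h plating at 37 C and 5% CO2, PPARd UAS-bla HEK293H cells took up test compounds for 17 h. Viability was quantified by luminescence 30 min after CellTiter-Glo addition at room temperature.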
# [13] = qHTS assay to identify small molecule antagonists of the peroxisome proliferator-activated receptor delta (PPARd) signaling pathway - cell viability counter screen (AID 743213); conditions: PPARd-bla HEK293H viability, CellTiter-Glo luminescence, 17 h; viability change, negative = cytotoxic: at 62 µM (top of the series) unless noted; also: potency is read from the fitted curve at half-maximal effect; nearly all actives have a fitted effect of over 50% in size
# How it was run: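 Cytotoxicity counter screen: CellTiter-Glo luminescence read 30 min after addition, in the same wells as the reporter assay. There, PPARd UAS-bla HEK293H cells (3000/well) were treated 17 h at 37 C with compound and 300 nM L165041.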
# [14] = qHTS assay to identify small molecule antagonists of the farnesoid-X-receptor (FXR) signaling pathway - cell viability counter screen (AID 743221; active = well fitted cell-killing curve with a large enough effect in the repeat runs, not every such curve was filed as active; inconclusive = weak or mixed curves, or effect the other way; inactive = no such curve, though single readings can be large or run the other way; also: potency is read from the fitted curve at half-maximal effect; nearly all actives have a fitted effect of over 50% in size); conditions: FXR-bla HEK293T viability, CellTiter-Glo luminescence, 16 h; activity change, negative = cytotoxicity: at 62.6 µM (top of the series) unless noted
# How it was run: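 Compound effects on cell number were measured as CellTiter-Glo luminescence in HEK 293T cells expressing FXR-UAS-bla, after 16 h at 37 C with 50 uM CDCA (final).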
# [15] = activity change, negative = inhibition: at 61 µM (top of the series) unless noted
# [16] = activation: at 62.6 µM (top of the series) unless noted
# [17] = ratio activity, negative = inhibition: at 62 µM (top of the series) unless noted
# Tags tell the direction and shape of the fitted curve or compound fluorescence and quenching.
smiles,measurement,setting,value
O=C(/C=C/c1ccccc1)OCCc1ccccc1,activation,[1],inconclusive: 20.4%
same,Potency,[2],"inconclusive: 19.5 µM [rising, full curve]"
same,activation,[3],inconclusive: 0.523%
same,Potency,[4]; [15],"inconclusive: 1.74 µM [activator, full curve, poor fit]"
CN(C)c1nc(N(C)C)nc(N(C)C)n1,activation,[5]; [16],inconclusive: 3.42% [at 5.95 µM]
same,activation,[5]; at 62.6 µM (top of the series),inactive: -0.15%
same,Potency,[2],"inconclusive: 11.9 µM [rising, full curve, poor fit]"
CC(C)(C(=O)c1cccnc1)c1cccnc1,Potency,[1],inactive
same,Potency,[2],inactive
CC1CC(C)C(=O)C1=O (configuration not stated),Potency,[6],inactive
same,Potency,[7]; [17],inactive
same,Potency,[3],"inconclusive: 24.5 µM [rising, single point]"
same,"activity change, negative = inhibition",[4]; [15],inconclusive: 23.7%
same,Potency,[8],inactive
C=C(C)c1ccccc1,Potency,[1],inactive
same,Potency,[9],inactive
same,Potency,[8],inactive
CCC(=O)/C=C/C1C(C)=CCCC1(C)C (configuration not stated),Potency,[5]; [16],inactive
same,"ratio activity, negative = inhibition",[7]; at 80.4 µM (top of the series),inactive: 0.267%
same,"ratio activity, negative = inhibition",[7]; [17],inconclusive: -1.3%
same,Potency,[3],inactive
O=C1c2ccccc2C(=O)C1(O)O,Potency,[10],"inconclusive: 68.9 µM [cytotoxic, single point]"
same,Potency,[5]; [16],inconclusive: 58.5 µM
same,"activity change, negative = inhibition",[11],inconclusive: 29.3% [at 81.1 µM]
same,Potency,[9],"inconclusive: 55.3 µM [activator, single point]"
O=C1CC2(CCCC2)CC(=O)N1CCCCN1CCN(c2ncccn2)CC1,Potency,[5]; [16],inactive
same,Potency,[12],"inconclusive: 12.3 µM [cytotoxic, full curve]"
same,Potency,[13],"inconclusive: 21.9 µM [cytotoxic, partial curve]"
same,Potency,[2],active: 24.5 µM
same,Potency,[9],inconclusive: 30.9 µM
CN(C)CCOc1ccccc1Cc1ccccc1,Potency,[1],inactive
same,Potency,[14],"inconclusive: 29.8 µM [falling, partial curve, poor fit]"
CC(=O)Nc1ccc(C)cc1C,Potency,[1],inactive
same,Potency,[4]; [15],inactive
C=CC1CO1 (configuration not stated),Potency,[1],inactive
same,Potency,[3],inactive
same,"activity change, negative = inhibition",[4]; [15],inconclusive: 26.5% [at 78.8 µM]
C1CCCC1,activation,[1],inconclusive: -0.838%
same,Potency,[4]; [15],inactive
C=CC/C=C/C,Potency,[5]; [16],inactive
same,Potency,[12],inactive
CSc1ccc(C(=O)c2[nH]c(=O)[nH]c2C)cc1,Potency,[6],inactive
same,Potency,[12],"inconclusive: 7.5 µM [cytotoxic, single point]"
same,Potency,[4]; [15],inactive
NNCCc1ccccc1,Potency,[1],"inconclusive: 30.7 µM [rising, partial curve]"
same,Potency,[3],"inconclusive: 2.11 µM [rising, full curve, poor fit]"
Nc1ccc(N)c(Cl)c1,Potency,[10],active: 68.5 µM
same,Potency,[5]; [16],"inconclusive: 48.9 µM [activator, partial curve, poor fit] and inconclusive: 54.9 µM [activator]"
same,Potency,[12],"inconclusive: 54.9 µM [cytotoxic, single point]"
same,"ratio activity, negative = inhibition",[7]; [17],inconclusive: -37.2%
same,Potency,[3],"inconclusive: 61.5 µM [activator, single point]"
same,Potency,[4]; [15],"inconclusive: 61.5 µM [inhibitor] and inconclusive: 54.9 µM [activator, single point]"
same,Potency,[8],"inconclusive: 61.5 µM [cytotoxic, single point]"
OCCOCCOCCOCCOCCO,Potency,[12],"inconclusive: 54.9 µM [cytotoxic, single point]"
same,"activity change, negative = inhibition",[4]; at 78.8 µM (top of the series),inactive: -13%
CCc1cccc(C)c1,Potency,[9],inactive
FC(F)(F)c1cccc(Cl)c1,Potency,[9],inactive
